These results are taken from publication PMC4336329 (PLoS ONE, 2015).

SMILES strings stand for the structures. In all, about 310,000 compounds went through this assay and about 2,200 (0.71%) showed an effect of 50% or more. Effects have a minus sign here. The list shows a part of the results.

For this assay, the target named is human ether-à-go-go-related gene (hERG) potassium channel (human, UniProt Q12809). Kind of assay: primary screen, population patch clamp on CHO cells stably expressing hERG.
human ether-à-go-go-related gene (hERG) potassium channel, sequence (Q12809 whole entry, looked up): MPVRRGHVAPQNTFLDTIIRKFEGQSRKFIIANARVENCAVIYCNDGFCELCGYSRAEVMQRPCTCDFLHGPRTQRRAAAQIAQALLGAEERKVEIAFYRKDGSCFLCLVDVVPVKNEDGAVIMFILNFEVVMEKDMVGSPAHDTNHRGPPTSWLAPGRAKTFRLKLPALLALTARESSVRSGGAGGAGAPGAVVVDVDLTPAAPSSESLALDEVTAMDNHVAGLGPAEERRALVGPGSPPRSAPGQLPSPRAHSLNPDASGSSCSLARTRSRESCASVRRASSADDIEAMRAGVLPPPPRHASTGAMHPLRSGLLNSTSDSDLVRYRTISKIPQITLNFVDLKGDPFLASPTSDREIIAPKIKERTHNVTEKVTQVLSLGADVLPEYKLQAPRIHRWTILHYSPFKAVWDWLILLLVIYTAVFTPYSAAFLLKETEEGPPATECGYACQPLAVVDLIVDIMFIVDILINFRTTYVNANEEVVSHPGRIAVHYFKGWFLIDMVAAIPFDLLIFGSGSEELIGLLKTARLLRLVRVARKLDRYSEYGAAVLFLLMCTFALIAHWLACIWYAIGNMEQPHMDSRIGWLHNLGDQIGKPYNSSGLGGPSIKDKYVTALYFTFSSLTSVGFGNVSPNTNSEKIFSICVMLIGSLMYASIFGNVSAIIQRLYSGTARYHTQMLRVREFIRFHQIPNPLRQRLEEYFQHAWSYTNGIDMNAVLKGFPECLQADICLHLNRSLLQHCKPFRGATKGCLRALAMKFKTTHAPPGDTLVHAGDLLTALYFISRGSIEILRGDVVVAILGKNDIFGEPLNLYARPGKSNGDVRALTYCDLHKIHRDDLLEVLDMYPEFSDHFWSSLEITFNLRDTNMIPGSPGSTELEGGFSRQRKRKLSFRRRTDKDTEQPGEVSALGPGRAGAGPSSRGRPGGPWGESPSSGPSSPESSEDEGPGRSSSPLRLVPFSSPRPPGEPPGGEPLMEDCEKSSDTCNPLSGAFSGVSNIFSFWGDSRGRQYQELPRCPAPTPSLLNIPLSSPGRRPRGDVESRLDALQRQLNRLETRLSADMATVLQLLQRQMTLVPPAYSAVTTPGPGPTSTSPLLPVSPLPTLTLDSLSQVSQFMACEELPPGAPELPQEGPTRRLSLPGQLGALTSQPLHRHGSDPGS
Consider `CN(C)c1cccc(C(=O)NCc2ccc(Cl)cc2)c1`, for which the “hERG current change (%, negative = inhibition) at 1uM” value is 13.5%.
As to `CCc1ccc(NC(=S)N2CCC(NC(=O)c3ccccc3OC)CC2)cc1`, the “hERG current change (%, negative = inhibition) at 1uM” value amounted to 7.54%.
The value for `O=C(NCCc1ccccc1)c1ccc(=O)[nH]c1` was 11.7%; that for `O=C(NCCCNc1ccc([N+](=O)[O-])cc1Cl)c1ccccc1F` was 0.379%.
Then `CC1(C)CC(=O)c2cc(OCC(=O)NCCN3CCCc4ccccc43)ccc2O1`, with -12.8%; and `O=C(Cn1cnc2ccc(Br)cc2c1=O)c1cccs1`, with 12.4%.
Then `CCOC(=O)c1nnn(-c2ccc([N+](=O)[O-])cc2)c1C`, with -0.613%; and `CCOC(=O)CSc1nc2ccccc2n1C(=O)OCC`, with 5.05%; and `Cc1ccc(CN2CCC(n3nccc3NC(=O)CCOc3ccccc3)CC2)cc1C`, with -23.3%.
For the molecule `CC(=O)c1ccc(NC(=O)C(C)N(C)CC(=O)Nc2cccc(F)c2)cc1` (centres unmarked), the “hERG current change (%, negative = inhibition) at 1uM” value was determined as 1.4%.
Consider `Cc1cc(C(C)(C)C)oc1C(=O)N(CC(=O)NC1CCCC1)c1ccc(F)cc1`, for which the “hERG current change (%, negative = inhibition) at 1uM” value worked out at 12.2%.
Then `CC(=O)c1cccc(CN2CCC(n3nccc3NC(=O)CCc3ccccc3)CC2)c1`, with 2.28%.
In the case of `CCN(CC(=O)Nc1sc2c(c1C#N)CCCC2)CC(=O)NC1CCS(=O)(=O)C1` (centres unmarked), the “hERG current change (%, negative = inhibition) at 1uM” value was 9%.
Then `COc1ccc(/C=N/n2nnnc2N)c(OC)c1`, with 9.61%.
Then `O=C(OCc1nnc(-c2ccccc2)o1)c1cccc(-n2cnnn2)c1`, with 3.91%.
The value for `CCSc1nc2[nH]ncc2c(=O)[nH]1` was 9.41%.
In the case of `Cc1ccc2nc(N3C(=O)C(O)=C(C(=O)c4ccc(C)o4)C3c3ccc(O)cc3)sc2c1` (centres unmarked), the “hERG current change (%, negative = inhibition) at 1uM” value came to 14.1%.
Then `Cc1noc2ncnc(N3CCCC3)c12`, with 7.2%; and `CCCCOC(=O)C(C)Nc1n[nH]c(=S)[nH]c1=O` (centres unmarked), with 3.75%.
Then `Cn1c(C(=O)NCC2CCCO2)cc2c(=O)n(C)c3ccccc3c21` (centres unmarked), with 8%; and `CCOC(=O)c1cnc2ccc(Cl)cc2c1NCCN(C)C`, with -0.644%; and `O=C1NC2(CCCC2)N=C1c1ccc(F)cc1`, with -9.83%.
Consider `Cc1ccc(-c2nnc(NCc3ccccc3)c3ccccc23)cc1`, for which the “hERG current change (%, negative = inhibition) at 1uM” value is listed as 1.62%.
With `CC(=O)N/C(=C/c1ccc(OC(F)F)cc1)C(=O)O`, the “hERG current change (%, negative = inhibition) at 1uM” value turned out to be 9.51%.
The value for `CC(CC(=O)NC1CCCCC1)S(=O)(=O)c1ccc2c(c1)CCN2C(=O)C1CC1` (centres unmarked) was 21.8%; that for `NC(=O)Cc1nc(-c2ccc(Br)cc2)cs1` was 9.99%; that for `CCNC(=O)c1ccc(NS(=O)(=O)c2ccccc2)cc1` was 9.87%.
Turning to `O=C(Nc1ccc2oc(-c3cccc(F)c3)nc2c1)c1ccccc1F`, the “hERG current change (%, negative = inhibition) at 1uM” value was determined as 13.6%.
The value for `Cc1ccc(CNC(=O)Nc2ccccc2)n1C` was 17.5%; that for `O=C(Cn1ccc2ccccc2c1=O)NCCC(=O)Nc1ccc2c(c1)OCCO2` was 8.09%; that for `CCOc1ccc(CCNC(=O)COC(=O)/C=C/c2ccccc2OC)cc1OCC` was 14%.
Then `Cc1ccc(C(=O)OCC(=O)c2ccc(Cl)s2)s1`, with 5.82%; and `O=C1CSC(c2c(F)cccc2Cl)N1c1cccc(F)c1` (centres unmarked), with -0.699%; and `Cc1ccc(NC(=O)CCC(=O)NNC(=O)c2ccccc2[N+](=O)[O-])c(C)c1`, with 13.2%.
The value for `Cc1ccc(NC(=S)Nc2ccc(F)cc2)c(C)c1` was -0.309%; that for `Cc1nc2ccccn2c1C(=O)NNS(=O)(=O)c1ccc(Cl)cc1` was 10.6%; that for `COCCN(C(=O)Cc1cccs1)C(C(=O)NCc1ccc(OC)cc1)c1ccc(C)cc1` (centres unmarked) was -11.3%.
As for `CC#CC#Cc1cccc(=O)o1`, the “hERG current change (%, negative = inhibition) at 1uM” value is recorded as 14.3%.
`CCN1CCN(c2ccc(NC(=O)c3ccc4c(c3)[nH]c(=O)n4Cc3ccc(OC)cc3)cc2)CC1`: the “hERG current change (%, negative = inhibition) at 1uM” value was determined as 11.2%.
On to `Cc1cc(C(=O)N2CCC3(CC2)OCCO3)no1`, for which the “hERG current change (%, negative = inhibition) at 1uM” value is given as 15.2%.
With `CC(NC(=O)Cc1ccccc1)c1cc2c(cc1Br)OCCCO2` (centres unmarked), the “hERG current change (%, negative = inhibition) at 1uM” value is listed as 6.49%.
The value for `COC(=O)c1ccccc1NC(=O)c1ccc(-c2ccc(Br)cc2)o1` was 21.4%; that for `COCc1cc(=O)[nH]c(N2CCN(Cc3ccc4c(c3)OCO4)CC2)n1` was 3.77%.
With `CN(C)[C@@H](CO)c1nnc([C@H](Cc2ccc(O)cc2)NC(=O)C2CCNCC2)o1.Cl`, the “hERG current change (%, negative = inhibition) at 1uM” value stood at 5.57%.
Then `COC(=O)C1=C(c2cccc(OC)c2OC)C[C@@H]2CC[C@H]1N2C(=O)NCc1ccc(F)cc1`, with 9.88%; and `Cc1cc(C(=O)NNC(=O)c2ccc(Cl)cc2Cl)c(C)o1`, with -8.85%.
Regarding `COc1ccc(-c2cc3ccccc3n2CC(O)CN2CCOCC2)cc1` (centres unmarked), the “hERG current change (%, negative = inhibition) at 1uM” value came to 2.37%.
The value for `Cc1ccc(C)c(NC(=O)Cn2nc(C(F)(F)F)cc2C2CC2)c1` was 21.2%; that for `O=C(/C=C/c1ccco1)NCC(=O)N/N=C/c1ccc(Cl)cc1` was -18.5%.
Then `COc1ccc(-c2nc(-c3cccc([N+](=O)[O-])c3O)cc(=O)o2)cc1OC`, with 4.37%; and `S=C(NCc1cccs1)Nc1cccc(Cl)c1Cl`, with -1.35%; and `CCSc1nnc(NC(=O)C2CCCCC2)s1`, with -6.46%.
The value for `CC(C(=O)Nc1sc2c(c1C(=O)NCc1ccco1)CCCC2)N1C(=O)c2ccccc2C1=O` (centres unmarked) was 15.4%; that for `COC(=O)C(Cc1ccccc1)NC(=O)CCC(=O)NC(C)CCc1ccccc1` (centres unmarked) was 14.1%.
On to `Cc1cc(C)c2cc(CN(Cc3ccco3)C(=O)NCc3ccccc3)c(=O)[nH]c2c1`, for which the “hERG current change (%, negative = inhibition) at 1uM” value is 3.27%.
The value for `CC(=O)Nc1ccc(NC(=O)c2ccc(N(Cc3ccccc3C)S(C)(=O)=O)cc2)cc1` was 8.92%.
Regarding `CCCCOCCCNC(=O)N[C@H](C(=O)OC)C(C)CC` (some centres unmarked), the “hERG current change (%, negative = inhibition) at 1uM” value is reported as 7.43%.
The value for `CCOc1ccc(NC(=O)CC2C(=O)N(c3ccc(OC)cc3)C(=O)N2Cc2ccc(OC)cc2)cc1` (centres unmarked) was 2.84%.
The value for `CCOc1ccc(Oc2ccc(Cl)cc2NC(=O)C2=COCCO2)cc1` was -0.825%; that for `N#Cc1ccccc1OCC(=O)N(Cc1nnc(-c2ccccc2Cl)o1)C1CC1` was 6.6%.
The value for `Cc1cc(S(=O)(=O)NC2CCCC2)ccc1F` was 2.27%.
For the molecule `CCO[C@@H]1OC(C(=O)NCc2nc3ccccc3[nH]2)=C[C@H](C(C)(C)C)[C@H]1CCCO`, the “hERG current change (%, negative = inhibition) at 1uM” value was -2.77%.
The value for `CC(NC(=S)Nc1ccc(OC(F)F)cc1)c1ccc(F)cc1` (centres unmarked) was -0.896%; that for `CN(CC(=O)Nc1ccc(N2CCOCC2)cc1)C(=O)COc1ccccc1F` was 3.14%.
Turning to `CCn1c2ccccc2c2nnc(SCC(=O)c3c(N)n(C)c(=O)n(C)c3=O)nc21`, the “hERG current change (%, negative = inhibition) at 1uM” value came to 8.62%.
For the molecule `O=C(c1cccnc1)N(Cc1ccccc1)C1(C(=O)Nc2ccccc2)CCCCC1`, the “hERG current change (%, negative = inhibition) at 1uM” value worked out at 5.34%.
The value for `Cc1ccc(NC2c3ccccc3C(=O)N2CCN2CCOCC2)cc1` (centres unmarked) was 6.03%; that for `CCC1Oc2ccc(C)cc2N(CC(=O)NCC2COc3ccccc3O2)C1=O` (centres unmarked) was 12.4%.
Then `Cc1cc(C)c2sc(NC(=O)CN3C(=O)CCC3=O)nc2c1`, with -3.92%; and `CC(C)C[C@@]12C(=O)N(c3cccc(F)c3)C(=O)N1[C@H](c1ccc(F)cc1)[C@@H]1C(=O)N(C3CCCCC3)C(=O)[C@@H]12`, with 0.173%; and `COc1cc2c(cc1OC)CN(C(=O)COc1ccc(C)c(C)c1)CC2`, with 13.5%.
With `Cc1cc(Br)ccc1NC(=S)Nc1cccc([N+](=O)[O-])c1`, the “hERG current change (%, negative = inhibition) at 1uM” value was determined as 7.43%.
Then `C=CCn1c(CCNC(=O)c2cccs2)nnc1SCC(=O)Nc1cccc(Cl)c1C`, with -26.1%; and `N#Cc1nc(COc2ccccc2)oc1NCCN1CCOCC1`, with 2.09%; and `COC(=O)c1ccccc1NC(=O)c1cnn2c(C)cc(C)nc12`, with -20.3%.
In the case of `COc1ccc(CC(=O)NCc2ccccc2Cl)cc1S(=O)(=O)N1CCOCC1`, the “hERG current change (%, negative = inhibition) at 1uM” value is 5.71%.
As for `CN(C)S(=O)(=O)c1cccc(C(=O)NCc2cccs2)c1`, the “hERG current change (%, negative = inhibition) at 1uM” value is reported as -0.192%.
The value for `CC(C)(C)c1ccc(C(=O)NCC(=O)N2CCCCCC2)cc1` was 8.55%; that for `Fc1cc(F)c2nc(N3CCCCC3)sc2c1` was 8.39%.
Then `O=C(CCc1ccccc1)OCCOC(=O)CCc1ccccc1`, with 21.6%.
With `CCN1CCN(C(c2cccs2)C(C)NC(=O)c2ccco2)CC1` (centres unmarked), the “hERG current change (%, negative = inhibition) at 1uM” value came out at 5.54%.
Then `CN(C1CCCC1)C1CCN(C(=O)CNC(=O)/C=C/c2cccc(C(F)(F)F)c2)CC1`, with -29.5%; and `Br.Cc1csc(=Nc2ccccc2)n1Cc1ccco1`, with 12.7%; and `Nc1nc(-c2ccccc2)[nH]c(=O)c1N=O`, with 13.6%.
On to `O=C(Nc1nc(-c2ccccn2)cs1)c1ccc2c(c1)OCCO2`, for which the “hERG current change (%, negative = inhibition) at 1uM” value is 15%.
The value for `O=C(C1CCC(CNc2nc(=S)[nH]c3ccccc23)CC1)N1CCN(c2ccccn2)CC1` (centres unmarked) was 8.27%; that for `CCc1ccc(-c2cc(C)no2)cc1S(=O)(=O)N1CCN(c2cc(C)ccc2C)CC1` was 2.48%.
In the case of `O=C(NNC(=O)C1CCC1)c1ccc(Br)cc1`, the “hERG current change (%, negative = inhibition) at 1uM” value is 8.96%.
With `C=CCN(C(=O)c1ccc(Cl)cc1)c1ccccc1C(=O)NCC(=O)O`, the “hERG current change (%, negative = inhibition) at 1uM” value was 18.1%.
